Assay results as given in the supplement of paper PMC10126150.
Sequences with one replicate were seen in a single cluster, so their values are uncertain.

Tested on: ATP
Assay: switch fluorescence ratio, 500 uM ATP over buffer (Cy3 cluster intensity, sum of 5 cycles each) (fold (ratio)); higher = stronger signal-on switching upon ATP binding; sequences stand for … in TCGTCGGCAGCGTCAGATGTGTATAAGAGACAGTTTTTTTTTTTTTTTTTTTTTTTTT…TC
Details: aptamer strand: ATP DNA aptamer (quencher-CACCTGGGGGAGTATTGCGGAGGAAGG + anchor), 100 nM annealed; ATP concentration: 500 uM; one replicate
Method in brief: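 Values give the fluorescence ratio for each switch-domain sequence, averaged from per-cluster ratios of summed target-cycle to summed buffer-cycle Cy3 intensity. The Cy3-labelled switching-strand clusters sat on a modified Illumina MiSeq flow-cell, were annealed to 100 nM quencher-labelled ATP aptamer, and were imaged in selection buffer, then after 15 min with 500 uM ATP at 22 °C. Five cycles ran with NaOH stripping and re-annealing between them, and clusters outside 100-1000 RFU were excluded.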
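Note: ATP exposure 15 min at 22 °C before imaging.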

Sequence | switch fluorescence ratio
GACATCTCGA | 1.03
TGATTCAGCT | 0.959
ACGGTGCGGA | 0.98
TTATCAGGTA | 1.04
ATTAACACAG | 1.05
CAGGGTAAGT | 1.01
CTATCACAGC | 1.02
TTTAAACCAG | 0.994
ATCCGCCGAA | 1.04
TATTGGGACT | 0.986
GCAGTCGCGA | 1.04
TACATATGAG | 1.05
TCTAAATG | 1
GGCTACAAGC | 0.988
ATTATTACTA | 1.03
GCCCGGCCGC | 1.03
AAGCATA | 1.93
CTCAATTACC | 1.11
CCTGAGTTGT | 0.996
CTCAGTTA | 1.02
ATGATTATTA | 0.967
GATAGAATTT | 0.965
ATATTCGGAT | 0.973
CGGCATTACA | 1.83
CTTCGAAGAG | 1
GTAGGGTTAT | 0.989

Sequence | switch fluorescence ratio
TTTGATAAT | 1.05
CAGTGTAAGG | 1
CGGGAATTT | 1.54
AGAATGTATA | 1
AAAAGCATTA | 1.04
ACCCATTTGT | 0.994
TTGATGTCG | 1.14
TTGAGGCTGT | 0.979
AGAGACATGA | 1
CCGTTTCAAG | 1.04
CCAGGCCACC | 1
TGTATGTTCC | 1.09
TCTGGGAGAC | 1.23
CGCATTCAAG | 1.1
CGGCCCAGGA | 1.29
GGTACAAGCG | 0.981
ACGATGAATT | 1.03
TATTCTGCCC | 1.02
AGCTTTGCGC | 1.02
TCCATGCAGG | 1.03
AATACATTTT | 1.01
AATGAGATGT | 0.95
GCGCCGATTA | 1.08
CCCCCTCGGA | 1.14
CGGCCAATCA | 1.08
ACTGGGGGCA | 0.968

Sequence | switch fluorescence ratio
TGAACGTTAC | 1.6
CTACAACTGC | 1.07
CCACCTTGAA | 0.995
GACTATCTGT | 0.975
AACATCCCTG | 1.03
GAAAATCGCT | 1
GAGATATTAT | 0.967
TGCCTCTGAG | 1.04
TGTTCAAGGC | 1.07
ACAATGATAC | 1.24
TAGGTATTTT | 1.01
GTATCATAGT | 0.987
TGAGCGCTGT | 1.02
TGGTGTTTAG | 0.995
CAGAGACTGT | 0.969
TAAAAATAGA | 0.984
GAGATTTGAG | 1
GCTTCTACTT | 1.03
CGTCCAAACT | 1.11
CTTGGGCTCG | 1
GCGCAATGTC | 2.43
CGCCCGCCCG | 1.11
TGACTCATGT | 0.983
CACTATGCTA | 1.1
CGGAGTTGCT | 1.04
ACGTAAAGCC | 1.08

Sequence | switch fluorescence ratio
TATGCGTGCA | 0.993
GCCATCTGAT | 0.971
TTGTAAGATG | 1.05
TTTAGGAAGC | 0.988
CCACCGTGCG | 1.39
ATTAGCGCTC | 1.02
TCTGTTAGCT | 1.03
ATGCATACA | 1.03
GAGATAGCCT | 1.09
AGTAGAAATA | 1.04
GTCCGGATCT | 1.08
TATATTCTTC | 1.22
TGAGACGGTT | 0.996
GGACTTATAA | 1.04
ATTCTGTCAC | 0.986
ACATTGTAAC | 1.07
AAGTGTGCGT | 0.967
TACAGCTAGC | 0.967
CGGGTGTAAA | 0.987
TATGTTAGAC | 1
ACGTTCAACC | 1.15
GGTTGAAAAT | 1.01
CGTCAAGGA | 0.996
GGCATTTACC | 1.06
TAGTAAGTGT | 1
AAAGGAAGCT | 1.05

Sequence | switch fluorescence ratio
AAAGTCACGC | 1.23
ACTGTGGTCG | 1.04
GATTGGGT | 1.02
ACGAGCTGTT | 1.08
GAACGAGTCC | 1
ATAATTTGGC | 1.04
GGTTCGCCG | 1.02
GTGTAGTACG | 0.976
CAAGCCCGGC | 1.01
AACGACGTGT | 1.02
GGGGTAGTGA | 0.992
GCGACTGACT | 1.09
CGATAGCCT | 2.29
GGGTTGGTCT | 1.02
GGCACCGTTC | 1.06
CATCCTCCTG | 1.3
AAATGGTTAT | 0.968
ACTACATAAC | 1.15
CCTCCCCGGT | 3.98
GCCTTTGGTA | 1.03
CTGCTGGGCT | 1.02
GGGACGGATC | 1.02
AGACGTTGCA | 0.975
CGTCGGTTTA | 1.05
AGATCTAAAT | 1
CCAACAGGG | 1.59

Sequence | switch fluorescence ratio
AACGGGCCT | 0.988
CGGTCAGGCT | 0.973
GGTTAAGGGC | 1.01
GCCAATGCGT | 1.03
AACGGAGCCA | 1.25
TCACGGACCC | 1.43
TCTAAGCCTT | 1.05
GTGAAGGGTC | 0.996
TGTTGCATGA | 1.02
AAGGGTCAAC | 0.989
TGCACGGTTC | 0.986
AGGACTTG | 1.01
CTATATTGTG | 1.02
ACGAGGGGTG | 0.988
TGTATGAGGC | 1
GAAATAACCG | 0.995
TATCCAGATG | 1.11
TTGGTAAATT | 1.04
CCCTTTCATC | 1.95
GGAGATGCCT | 1.02
TGCAGATGCG | 1.02
CTGGAGGCT | 1.06
ATTGTGTTTG | 1.03
TATTGATTCA | 0.971
AGTTTAGGTT | 0.958
GAAGGCGATG | 1.03

Sequence | switch fluorescence ratio
CGCAACACAT | 2.74
TGCTGTTAGG | 0.962
GGCGCCAGAA | 0.991
AAGGTTGGAG | 0.984
CGGCATAGGT | 1.01
AACCATGCTA | 1.03
TGTATAAATG | 1.01
CAGTCCTCGT | 0.987
GTTGGATCGA | 1.05
CTGCTCTTTC | 1.08
ACGGTATGCG | 1.07
TAGTTCTGTA | 1.02
GAGGTTCG | 0.976
ACCCGTGCGC | 1.11
GTTTATTAGC | 0.99
AGTAGGACTA | 1.01
TTTCTTGGAC | 1.02
CACTGAGACA | 1.05
AGGCTTCCTG | 1.06
TTAGCCATTT | 1.03
AGAACGGGTG | 1.11
TTTCCGACGA | 4.03
TCCGGGTTAC | 3.85
AGGATAGTA | 1.01
TATTCTTACC | 1.01
AACGCGGATG | 1

Sequence | switch fluorescence ratio
AGGCCTGGAA | 1.03
CGGAAACTCT | 1.07
TATGGTACTA | 0.99
TTTGTTGAA | 1.01
TATCCTCGGC | 1.4
GCTAGTTCGC | 1.01
AATAGTTTAA | 1
CGTTACGCAA | 3.8
AGAATTCAAT | 1.02
TTCGTAGGAA | 1.1
GGACACTTGC | 1.07
TCGCTGGGT | 0.972
CGTCGGTTGC | 1.05
GTGAATTCAG | 1.03
GGTTTGATCA | 0.968
AGATGGAAAA | 0.951
ACCGAGACCT | 1.38
AGTAGACGC | 1.09
CTCATAACCT | 1.83
